In publication PMC3973283:
Results are given in words; binding and its absence hold for the method and conditions named. For part of these data: Binding seen in cells or lysates may run through a third protein. Some entries that bind do so weakly or less than the wild type. Sequences can lack the tags named with a protein.

Amino acid sequences for entries named in this document (tags omitted).
UniProt Q96KQ7: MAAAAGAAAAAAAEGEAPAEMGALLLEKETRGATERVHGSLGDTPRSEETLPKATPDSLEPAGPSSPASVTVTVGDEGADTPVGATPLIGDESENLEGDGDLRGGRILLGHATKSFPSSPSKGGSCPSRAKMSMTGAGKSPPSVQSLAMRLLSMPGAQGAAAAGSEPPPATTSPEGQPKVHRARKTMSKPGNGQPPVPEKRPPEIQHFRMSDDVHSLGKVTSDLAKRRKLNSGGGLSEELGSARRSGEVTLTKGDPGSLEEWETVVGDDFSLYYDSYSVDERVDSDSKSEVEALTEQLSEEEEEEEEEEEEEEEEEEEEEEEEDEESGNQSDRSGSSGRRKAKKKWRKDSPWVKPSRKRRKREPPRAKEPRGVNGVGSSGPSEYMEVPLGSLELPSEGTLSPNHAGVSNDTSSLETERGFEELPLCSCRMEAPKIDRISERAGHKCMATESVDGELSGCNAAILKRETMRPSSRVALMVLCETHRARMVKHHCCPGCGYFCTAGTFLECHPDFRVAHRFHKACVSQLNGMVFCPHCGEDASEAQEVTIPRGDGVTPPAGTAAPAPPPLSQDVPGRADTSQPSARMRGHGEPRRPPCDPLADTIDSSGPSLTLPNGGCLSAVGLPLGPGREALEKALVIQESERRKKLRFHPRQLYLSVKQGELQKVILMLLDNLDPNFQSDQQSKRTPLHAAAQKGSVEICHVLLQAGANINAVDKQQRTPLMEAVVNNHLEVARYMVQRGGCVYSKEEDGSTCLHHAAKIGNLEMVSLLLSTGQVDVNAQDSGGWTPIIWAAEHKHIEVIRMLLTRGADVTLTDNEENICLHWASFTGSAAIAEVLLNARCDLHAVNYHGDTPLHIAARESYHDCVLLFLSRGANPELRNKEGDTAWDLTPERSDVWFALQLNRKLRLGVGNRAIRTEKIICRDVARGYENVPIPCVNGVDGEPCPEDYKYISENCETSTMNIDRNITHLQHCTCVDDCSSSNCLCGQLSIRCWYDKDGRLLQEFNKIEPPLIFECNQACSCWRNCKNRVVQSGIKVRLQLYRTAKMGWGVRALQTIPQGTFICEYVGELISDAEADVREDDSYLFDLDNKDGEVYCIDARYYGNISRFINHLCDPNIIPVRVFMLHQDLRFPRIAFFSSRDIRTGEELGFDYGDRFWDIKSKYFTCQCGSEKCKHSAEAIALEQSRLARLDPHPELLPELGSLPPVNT
UniProt Q9H9B1: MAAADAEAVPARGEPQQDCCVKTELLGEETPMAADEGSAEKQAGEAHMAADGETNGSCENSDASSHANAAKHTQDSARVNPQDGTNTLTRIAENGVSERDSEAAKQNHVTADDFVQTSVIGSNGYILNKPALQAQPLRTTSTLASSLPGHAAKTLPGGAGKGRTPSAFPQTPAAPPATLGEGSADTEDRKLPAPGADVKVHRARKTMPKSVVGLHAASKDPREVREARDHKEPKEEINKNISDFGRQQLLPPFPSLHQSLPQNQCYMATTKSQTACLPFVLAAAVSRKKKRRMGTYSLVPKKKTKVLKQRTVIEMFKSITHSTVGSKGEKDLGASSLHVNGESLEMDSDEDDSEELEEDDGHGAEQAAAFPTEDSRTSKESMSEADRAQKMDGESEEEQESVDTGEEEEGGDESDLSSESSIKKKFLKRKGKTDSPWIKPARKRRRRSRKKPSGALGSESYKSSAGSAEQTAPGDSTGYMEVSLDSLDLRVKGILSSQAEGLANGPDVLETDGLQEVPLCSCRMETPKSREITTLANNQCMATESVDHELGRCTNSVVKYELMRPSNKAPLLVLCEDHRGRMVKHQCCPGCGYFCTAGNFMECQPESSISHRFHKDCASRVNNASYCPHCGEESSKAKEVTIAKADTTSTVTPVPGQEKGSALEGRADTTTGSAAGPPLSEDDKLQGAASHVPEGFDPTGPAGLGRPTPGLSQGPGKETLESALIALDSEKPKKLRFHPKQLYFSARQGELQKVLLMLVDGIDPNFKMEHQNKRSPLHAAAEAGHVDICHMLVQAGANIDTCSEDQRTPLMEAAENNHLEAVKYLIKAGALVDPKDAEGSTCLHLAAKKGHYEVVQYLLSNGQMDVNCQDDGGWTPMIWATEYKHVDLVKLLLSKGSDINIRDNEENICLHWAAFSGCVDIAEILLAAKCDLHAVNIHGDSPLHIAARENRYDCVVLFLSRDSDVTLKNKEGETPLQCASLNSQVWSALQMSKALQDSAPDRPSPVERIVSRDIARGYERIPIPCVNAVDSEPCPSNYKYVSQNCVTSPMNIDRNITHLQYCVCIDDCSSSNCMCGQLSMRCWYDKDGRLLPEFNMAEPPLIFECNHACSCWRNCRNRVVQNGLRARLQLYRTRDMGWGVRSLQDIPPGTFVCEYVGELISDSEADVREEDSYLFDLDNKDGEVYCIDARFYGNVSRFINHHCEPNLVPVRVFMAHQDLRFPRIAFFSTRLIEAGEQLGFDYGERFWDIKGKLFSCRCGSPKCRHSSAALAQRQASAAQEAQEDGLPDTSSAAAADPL

Experiments:
[1] = biological target: T1, His-S-PR-Set7 (UniProt Q9NQR1); assay: pull-down; purified recombinant FLAG-Riz1 truncations incubated in vitro with recombinant His-S-PR-Set7; S-tag-immunoprecipitation; Western analysis (Figure 2B); both purified
T1 sequence: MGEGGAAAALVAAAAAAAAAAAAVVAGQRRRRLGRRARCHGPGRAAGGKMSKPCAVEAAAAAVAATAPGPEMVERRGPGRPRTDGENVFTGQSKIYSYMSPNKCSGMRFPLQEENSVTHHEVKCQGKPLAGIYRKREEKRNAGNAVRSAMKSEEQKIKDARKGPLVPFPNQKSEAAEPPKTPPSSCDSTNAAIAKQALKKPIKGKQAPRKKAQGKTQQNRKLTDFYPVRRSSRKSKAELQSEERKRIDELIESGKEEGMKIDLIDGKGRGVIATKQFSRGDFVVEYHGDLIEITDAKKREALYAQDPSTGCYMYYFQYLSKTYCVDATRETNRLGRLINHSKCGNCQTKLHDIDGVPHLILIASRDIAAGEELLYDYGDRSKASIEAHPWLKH

[2] = biological target: T2, GST-Riz1C (UniProt Q13029); assay: pull-down; recombinant His-PR-Set7 proteins incubated in vitro with recombinant GST-Riz1C or GST alone; GST pull-down; Western analysis (Figure 2C); both purified
T2 sequence: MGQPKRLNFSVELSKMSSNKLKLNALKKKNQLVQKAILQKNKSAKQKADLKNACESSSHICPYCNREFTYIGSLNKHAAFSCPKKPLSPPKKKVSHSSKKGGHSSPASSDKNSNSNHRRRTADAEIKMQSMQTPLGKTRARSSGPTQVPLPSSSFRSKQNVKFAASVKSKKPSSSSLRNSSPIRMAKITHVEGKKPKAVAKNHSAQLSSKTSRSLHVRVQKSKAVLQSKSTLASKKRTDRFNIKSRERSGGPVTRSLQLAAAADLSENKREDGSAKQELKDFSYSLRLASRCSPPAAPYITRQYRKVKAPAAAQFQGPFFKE

[3] = biological target: T3, FLAG-Riz1C (UniProt Q13029); assay: co-IP; HeLa cells co-transfected with FLAG-Riz1C or FLAG-Riz1ΔC and DBD-PR-Set7 or DBD-G9aC; FLAG-immunoprecipitation; Western analysis (Figure 2D)
T3 sequence: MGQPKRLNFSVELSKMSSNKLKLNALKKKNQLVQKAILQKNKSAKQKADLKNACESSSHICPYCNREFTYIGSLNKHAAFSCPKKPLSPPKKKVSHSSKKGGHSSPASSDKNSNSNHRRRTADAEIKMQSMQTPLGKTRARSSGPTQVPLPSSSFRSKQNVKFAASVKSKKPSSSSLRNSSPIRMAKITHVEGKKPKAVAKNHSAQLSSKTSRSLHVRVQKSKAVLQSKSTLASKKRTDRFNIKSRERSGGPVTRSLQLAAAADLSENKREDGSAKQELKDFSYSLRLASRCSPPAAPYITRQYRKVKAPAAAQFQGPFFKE

[4] = biological target: T4, FLAG-Riz1ΔC (aa1-1396) (UniProt Q13029); assay: as above
T4 sequence: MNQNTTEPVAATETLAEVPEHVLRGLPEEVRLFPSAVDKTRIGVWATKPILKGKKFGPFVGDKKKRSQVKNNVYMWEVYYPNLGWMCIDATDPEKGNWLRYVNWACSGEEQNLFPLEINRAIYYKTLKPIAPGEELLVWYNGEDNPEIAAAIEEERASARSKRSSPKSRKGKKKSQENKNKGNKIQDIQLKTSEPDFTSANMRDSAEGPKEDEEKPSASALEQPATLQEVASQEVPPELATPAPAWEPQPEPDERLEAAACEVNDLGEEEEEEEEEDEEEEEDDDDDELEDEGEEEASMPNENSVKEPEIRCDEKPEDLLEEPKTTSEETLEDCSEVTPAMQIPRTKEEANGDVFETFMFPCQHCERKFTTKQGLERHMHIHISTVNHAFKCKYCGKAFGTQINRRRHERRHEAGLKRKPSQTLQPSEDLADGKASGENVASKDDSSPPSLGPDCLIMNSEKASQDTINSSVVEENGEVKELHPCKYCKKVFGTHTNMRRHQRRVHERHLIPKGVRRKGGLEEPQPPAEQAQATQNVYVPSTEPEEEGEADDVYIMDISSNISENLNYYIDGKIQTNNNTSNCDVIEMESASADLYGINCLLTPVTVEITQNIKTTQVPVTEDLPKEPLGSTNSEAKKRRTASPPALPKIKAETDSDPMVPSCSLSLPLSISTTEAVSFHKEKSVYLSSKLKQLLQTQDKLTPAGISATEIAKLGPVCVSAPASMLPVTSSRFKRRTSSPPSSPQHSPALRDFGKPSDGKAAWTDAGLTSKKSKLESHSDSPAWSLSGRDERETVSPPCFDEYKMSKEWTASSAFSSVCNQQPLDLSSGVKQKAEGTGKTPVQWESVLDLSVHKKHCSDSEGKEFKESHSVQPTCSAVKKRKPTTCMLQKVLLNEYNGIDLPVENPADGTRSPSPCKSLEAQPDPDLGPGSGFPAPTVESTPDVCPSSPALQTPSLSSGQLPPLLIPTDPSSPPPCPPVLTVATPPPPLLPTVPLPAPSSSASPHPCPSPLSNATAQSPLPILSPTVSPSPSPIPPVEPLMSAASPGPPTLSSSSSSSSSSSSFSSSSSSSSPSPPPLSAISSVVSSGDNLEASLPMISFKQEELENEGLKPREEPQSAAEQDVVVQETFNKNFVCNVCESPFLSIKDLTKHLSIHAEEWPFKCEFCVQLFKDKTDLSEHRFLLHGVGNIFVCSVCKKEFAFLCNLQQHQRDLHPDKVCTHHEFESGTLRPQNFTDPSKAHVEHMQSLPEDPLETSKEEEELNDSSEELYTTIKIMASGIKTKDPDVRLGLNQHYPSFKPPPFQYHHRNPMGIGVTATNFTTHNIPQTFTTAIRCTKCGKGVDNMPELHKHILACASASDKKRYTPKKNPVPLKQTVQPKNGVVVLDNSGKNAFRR

[5] = biological target: epitope-tagged G9a (UniProt Q96KQ7); assay: co-IP; HeLa cells co-transfected; nuclear pellet in IP lysis buffer (50 mM Tris-HCl pH 7.0, 150 mM NaCl, 0.5 mM DTT, 1% NP-40); FLAG- or HA-conjugated beads; Western analysis (Figure 1B)
[6] = biological target: epitope-tagged GLP-1 (UniProt Q9H9B1); assay: as above

B1: recombinant FLAG-Riz1 C-terminus (aa1397-1719) (domain or fragment, UniProt Q13029-1 1397-1718)
chain: MGQPKRLNFSVELSKMSSNKLKLNALKKKNQLVQKAILQKNKSAKQKADLKNACESSSHICPYCNREFTYIGSLNKHAAFSCPKKPLSPPKKKVSHSSKKGGHSSPASSDKNSNSNHRRRTADAEIKMQSMQTPLGKTRARSSGPTQVPLPSSSFRSKQNVKFAASVKSKKPSSSSLRNSSPIRMAKITHVEGKKPKAVAKNHSAQLSSKTSRSLHVRVQKSKAVLQSKSTLASKKRTDRFNIKSRERSGGPVTRSLQLAAAADLSENKREDGSAKQELKDFSYSLRLASRCSPPAAPYITRQYRKVKAPAAAQFQGPFFKE
binding [1]: binds

B2: His-S-PR-Set7 (protein, UniProt Q9NQR1 1-393)
chain: MGEGGAAAALVAAAAAAAAAAAAVVAGQRRRRLGRRARCHGPGRAAGGKMSKPCAVEAAAAAVAATAPGPEMVERRGPGRPRTDGENVFTGQSKIYSYMSPNKCSGMRFPLQEENSVTHHEVKCQGKPLAGIYRKREEKRNAGNAVRSAMKSEEQKIKDARKGPLVPFPNQKSEAAEPPKTPPSSCDSTNAAIAKQALKKPIKGKQAPRKKAQGKTQQNRKLTDFYPVRRSSRKSKAELQSEERKRIDELIESGKEEGMKIDLIDGKGRGVIATKQFSRGDFVVEYHGDLIEITDAKKREALYAQDPSTGCYMYYFQYLSKTYCVDATRETNRLGRLINHSKCGNCQTKLHDIDGVPHLILIASRDIAAGEELLYDYGDRSKASIEAHPWLKH
binding [2]: binds

B3: DBD-PR-Set7 (protein, UniProt Q9NQR1 1-393)
chain: MGEGGAAAALVAAAAAAAAAAAAVVAGQRRRRLGRRARCHGPGRAAGGKMSKPCAVEAAAAAVAATAPGPEMVERRGPGRPRTDGENVFTGQSKIYSYMSPNKCSGMRFPLQEENSVTHHEVKCQGKPLAGIYRKREEKRNAGNAVRSAMKSEEQKIKDARKGPLVPFPNQKSEAAEPPKTPPSSCDSTNAAIAKQALKKPIKGKQAPRKKAQGKTQQNRKLTDFYPVRRSSRKSKAELQSEERKRIDELIESGKEEGMKIDLIDGKGRGVIATKQFSRGDFVVEYHGDLIEITDAKKREALYAQDPSTGCYMYYFQYLSKTYCVDATRETNRLGRLINHSKCGNCQTKLHDIDGVPHLILIASRDIAAGEELLYDYGDRSKASIEAHPWLKH
binding [3]: binds | binding [4]: no binding

B4: Myc-PR-Set7 (protein, UniProt Q9NQR1 1-393)
chain: MGEGGAAAALVAAAAAAAAAAAAVVAGQRRRRLGRRARCHGPGRAAGGKMSKPCAVEAAAAAVAATAPGPEMVERRGPGRPRTDGENVFTGQSKIYSYMSPNKCSGMRFPLQEENSVTHHEVKCQGKPLAGIYRKREEKRNAGNAVRSAMKSEEQKIKDARKGPLVPFPNQKSEAAEPPKTPPSSCDSTNAAIAKQALKKPIKGKQAPRKKAQGKTQQNRKLTDFYPVRRSSRKSKAELQSEERKRIDELIESGKEEGMKIDLIDGKGRGVIATKQFSRGDFVVEYHGDLIEITDAKKREALYAQDPSTGCYMYYFQYLSKTYCVDATRETNRLGRLINHSKCGNCQTKLHDIDGVPHLILIASRDIAAGEELLYDYGDRSKASIEAHPWLKH
binding [5]: no binding | binding [6]: no binding
